{"source": "ChEMBL document CHEMBL1156829", "note": "In all, about 5,400 compounds were measured (“IFI”: median about 2, highest 2% from about 22 on). Some of the results follow.", "data": [{"test": "NOVARTIS: Inhibition Frequency Index (IFI) - the number of HTS assays where a compound showed > 50% inhibition/induction, expressed as a percentage of the number of assays in which the compound was tested.", "format": "functional", "units": {"IFI": "%"}, "values": [{"smiles": "COC(=O)[C@@H]1C[C@@H](NC(=O)c2ccc(OC)cc2OC)CN1Cc1cccc2ccccc12", "IFI": 0.848}, {"smiles": "CN(C)c1ccc(C=NNc2nc(N)nc(N)n2)cc1", "IFI": 7.69}, {"smiles": "COc1cccc(-c2ccc(O)c(CN(C)CC(O)c3ccccc3)c2)n1", "note": "(centres undefined)", "IFI": 2.56}, {"smiles": "CN(C)S(=O)(=O)c1ccc(C(=O)Nc2nc3c(ccc4ccccc43)s2)cc1", "IFI": 4.54}, {"smiles": "Cn1nc(C(F)(F)F)c(-c2ccc(F)cc2)c1NC(=O)Nc1ccc(F)cc1", "IFI": 3.42}, {"smiles": "O=[N+]([O-])c1ccc(S(=O)(=O)N2CCN(C(=S)NCCc3ccccc3)CC2)cc1", "IFI": 0}, {"smiles": "CCOc1cccc2c(C)nc(NC(=N)N)nc12", "IFI": 0}, {"smiles": "CC1=C(C(=O)Nc2ccccn2)C(c2ccc(O)cc2)n2ncnc2N1", "note": "(centres undefined)", "IFI": 0}, {"smiles": "COc1ccc([N+](=O)[O-])cc1N(CC1CO1)S(=O)(=O)c1ccc(C)cc1", "note": "(centres undefined)", "IFI": 0}, {"smiles": "O=C(O)c1ccc(C=NNc2ccc([N+](=O)[O-])cc2)cc1", "IFI": 4.32}, {"smiles": "O=C(O)c1ccc(NC(=O)c2ccc(N3C(=O)C4C5C=CC(C5)C4C3=O)cc2)cc1", "note": "(centres undefined)", "IFI": 0}, {"smiles": "OC1(C(F)(F)F)CC(c2ccccc2)=NN1c1nncc(-c2ccccc2)n1", "note": "(centres undefined)", "IFI": 0}, {"smiles": "Oc1c(C(Nc2ccccn2)c2cccc(Oc3ccccc3)c2)ccc2cccnc12", "note": "(centres undefined)", "IFI": 12.3}, {"smiles": "C[n+]1ccccc1C=Cc1cc(Br)ccc1O", "IFI": 0}, {"smiles": "COC(=O)c1cccc(-c2cc(Cl)c3c(c2)CC(CNC(=O)c2c(C)noc2C)O3)c1", "note": "(centres undefined)", "IFI": 0}, {"smiles": "CC(C)CN(CC(=O)Nc1cc(C(C)(C)C)nn1-c1ccccc1)C(=O)c1cc(Cl)cc(Cl)c1", "IFI": 1.87}, {"smiles": "COc1ccc(CN2CCN(C(=O)c3sc4ncn(Cc5ccccc5F)c(=O)c4c3C)CC2)c(OC)c1OC", "IFI": 1.15}, {"smiles": "CC[n+]1c(C=CN(C)C)sc2ccccc21", "IFI": 4.62}, {"smiles": "CCSc1sc2sccc2[n+]1CC", "IFI": 0}, {"smiles": "COc1cccc(NC(=O)Cn2c(C)c(C(C)=O)c3ccccc32)c1", "IFI": 0}, {"smiles": "N#Cc1ccccc1Cn1nc(-c2cccnc2)oc1=O", "IFI": 0}, {"smiles": "CCOc1ccc2nc(SCc3nc(N)nc(N4CCOCC4)n3)sc2c1", "IFI": 3.66}, {"smiles": "C=CCSc1ncc(-c2ccc(Cl)cc2)n1C", "IFI": 1.07}, {"smiles": "CCCCc1c(C)nc2c(OC)cccc2c1O", "IFI": 0}, {"smiles": "CCCOC(=O)CSc1nc(N)c(C#N)c(-c2ccco2)c1C#N", "IFI": 6.15}, {"smiles": "COC(=O)c1ccccc1NC(=O)CSc1nc2ccsc2c(=O)n1CCN1CCCC1", "IFI": 2.27}, {"smiles": "CCN1C=CC(=Cc2ccc3cc(C)ccc3[n+]2C)C=C1", "IFI": 15.4}, {"smiles": "O=C(COC(=O)c1c2c(nc3ccccc13)CCCCCCCCCC2)c1ccc(Cl)cc1", "IFI": 0}, {"smiles": "CCN1/C(=C/c2sc3ccc(Br)cc3[n+]2CC)C=Cc2ccccc21", "IFI": 15.4}, {"smiles": "CN1CCC(NCCc2ccc(Cl)cc2)CC1", "IFI": 2.94}, {"smiles": "O=C(Nc1cccnc1)c1cc(-c2cccnc2)nc2ccc(Br)cc12", "IFI": 0}, {"smiles": "Cc1nc(N2CCC(C)CC2)c2c(C)c(C(=O)Nc3ccc(F)cc3)sc2n1", "IFI": 1.18}, {"smiles": "Cc1ccc2c(Cl)c(C(=O)N3CC(C)OC(C)C3)sc2c1", "note": "(centres undefined)", "IFI": 0}, {"smiles": "COc1cccc(OC)c1C(=O)Nc1cc(C(F)(F)F)ccc1Cl", "IFI": 1.45}, {"smiles": "Cc1ccc(N2CCN(CCNCc3ccc(F)cc3)[C@@H](Cc3ccc(O)cc3)C2)cc1", "IFI": 2.47}, {"smiles": "CCOC(=O)C1=C(C)NC2=C(C(=O)C(C(=O)OC)C(C)C2)C1c1cc(Br)c(OC)c(OCC)c1", "note": "(centres undefined)", "IFI": 4.65}, {"smiles": "N=c1c2c(n(Cc3ccc([N+](=O)[O-])cc3)c3c1CCC3)CCCC2", "IFI": 0}, {"smiles": "Clc1ccc(Nc2nc(NCc3ccco3)c3ccccc3n2)cc1", "IFI": 14.3}, {"smiles": "CC[n+]1c(/C=C/C=C2\\N(C)c3ccccc3C2(C)C)n(-c2ccccc2)c2ccc(C)cc21", "IFI": 21.4}, {"smiles": "CCCOC(=O)C1=C(C)NC2=C(C(=O)CC(c3ccc(OC)c(OC)c3)C2)C1c1ccccc1C", "note": "(centres undefined)", "IFI": 3.53}, {"smiles": "C=CCNc1cc(-c2ccccn2)nc(-c2ccccn2)n1", "IFI": 7.69}, {"smiles": "Cc1ccc(C=NNC(=O)c2nnn(-c3nonc3N)c2-c2ccc([N+](=O)[O-])cc2)cc1", "IFI": 0}, {"smiles": "NC(=O)c1ccc2c(c1)N=C(/C=C/c1ccccc1)N(C1CC1)C2", "IFI": 7.41}, {"smiles": "CCOC(=O)c1c(S(=O)(=O)N2CCCC(C(=O)N3CCN(c4cccc(C)c4C)CC3)C2)c(C)n(C)c1C", "note": "(centres undefined)", "IFI": 0}, {"smiles": "Cc1ccn2c(NC(C)(C)CC(C)(C)C)c(-c3ccccc3OC(=O)/C=C/c3ccc([N+](=O)[O-])cc3)nc2c1", "IFI": 2.8}, {"smiles": "O=C(NCc1ccc(Cl)cc1)C1CNCC1c1ccc(C(F)(F)F)cc1", "note": "(centres undefined)", "IFI": 1.43}, {"smiles": "CCOc1ccccc1C=NNc1nc(Nc2ccccc2)nc(Nc2ccccc2)n1", "IFI": 3.9}, {"smiles": "COc1ccc(C2CC3=NC(C)=C(C(=O)OC(C)C)C(c4ccccc4Cl)C3=C(O)C2)cc1OC", "note": "(centres undefined)", "IFI": 4.76}, {"smiles": "COc1cc(NC(C)CCCN(Cc2ccc(OC)c(OC)c2)C(=O)c2ccc3ccccc3c2)c2ncccc2c1", "note": "(centres undefined)", "IFI": 5.71}, {"smiles": "CC(C)(C)CC(C)(C)Nc1c(-c2ccccc2OC(=O)c2ccccc2)nc2ccccn12", "IFI": 4.2}, {"smiles": "COc1ccc(C(=O)n2nc(N)c3cc4ccc(C)cc4nc32)cc1[N+](=O)[O-]", "IFI": 0}, {"smiles": "CCCCc1ccc(C(=O)N(CCC(=O)Nc2nnc(-c3ccc(OC)cc3)s2)CCc2ccc(OC)c(OC)c2)cc1", "IFI": 2.8}, {"smiles": "COc1ccc(C2=Nc3cc(C(=O)NCCN4CCOCC4)ccc3CN2C(C)C)cc1", "IFI": 1.22}, {"smiles": "COc1ccc(OC)c(-c2ccc(O)c(CNCCc3ccc(F)cc3)c2)c1", "IFI": 2.59}, {"smiles": "CCOC(=O)C1=C(C)N(c2ccc(OCC)cc2)C(=O)/C1=C\\c1ccc(C(C)C)cc1", "IFI": 3.53}, {"smiles": "CCOc1ccc2c(c1)sc(=NC(=O)Nc1ccc(OC)cc1)n2C", "IFI": 0}, {"smiles": "O=C(CNCCc1ccccc1)NC(c1ccccc1)c1ccccc1", "IFI": 1.82}, {"smiles": "Cc1ccc2c(c1)N(CC(=O)NC1CCCCC1C)C(=O)CO2", "note": "(centres undefined)", "IFI": 0}, {"smiles": "O=C(Nc1ccc(-c2nnc(-c3ccccc3)o2)cc1)c1ccc(Br)cc1", "IFI": 4.69}, {"smiles": "C=CCn1nc(C(=O)N2CCCC2)c2c1CCC(N1CCCCCC1)C2", "note": "(centres undefined)", "IFI": 2.41}, {"smiles": "COc1ccc2nc(C)cc(NN=Cc3cccc(OC)c3O)c2c1", "IFI": 7.69}, {"smiles": "CCCCCCN(C(=O)COCc1ccccc1)C(CC)c1nc2ccccc2c(=O)n1-c1ccc(F)c(Cl)c1", "note": "(centres undefined)", "IFI": 1.89}, {"smiles": "O=C1c2ccccc2-c2nc3ccc(C(F)(F)F)cc3nc21", "IFI": 0}, {"smiles": "CN(C)c1ccc(NC(=O)C2C3C=CC(O3)C2C(=O)O)cc1", "note": "(centres undefined)", "IFI": 0}]}]}
